{"source": "the supplement of paper PMC3334620", "note": "Over roughly 33,000 sequences, “E-score (-0.5 to 0.5)” has its median near -0.054; the highest 2% begin near 0.39. The list shows a part of the results."}
{"target": "Ylr278c (UniProt Q05854)", "experiment": "PBM E-score (8-mer binding enrichment) (E-score (-0.5 to 0.5)); higher = stronger / more preferred TF binding; most listed sequences are background and not binding sites", "conditions": "protein concentration: 200 nM; construct: GST-DNA-binding domain", "method": "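Universal 'all 10-mer' protein binding microarrays (Agilent AMADID 015681) probed with GST-tagged S. cerevisiae TFs (full-length or DBD) made by in vitro transcription/translation (PURExpress), about 100-200 nM. Bound TF was detected with fluorescent anti-GST. Each ungapped 8-mer (which stands for itself and its reverse complement) is scored by the PBM enrichment score (E-score), a modified Wilcoxon-Mann-Whitney statistic from -0.5 to +0.5, computed with the Universal PBM Analysis Suite. Scale: above 0.35 generally sequence-specific binding.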"}
{"sequence": "AGCTACGA", "PBM E-score": -0.254}
{"sequence": "CATTCTCC", "PBM E-score": 0.191}
{"sequence": "GCTTGAAA", "PBM E-score": -0.0583}
{"sequence": "GCGCTTCC", "PBM E-score": 0.174}
{"sequence": "ATAACGTC", "PBM E-score": -0.0967}
{"sequence": "GGCAGACA", "PBM E-score": -0.072}
{"sequence": "GCCCCAAA", "PBM E-score": -0.15}
{"sequence": "TCGCTTCA", "PBM E-score": -0.0182}
{"sequence": "CTTTGTCA", "PBM E-score": 0.00403}
{"sequence": "ACCGCAAG", "PBM E-score": 0.175}
{"sequence": "GATCATAC", "PBM E-score": 0.0298}
{"sequence": "AGGAATGG", "PBM E-score": -0.216}
{"sequence": "AGACTTCC", "PBM E-score": 0.103}
{"sequence": "AATACACC", "PBM E-score": 0.171}
{"sequence": "CGACCTAG", "PBM E-score": 0.02}
{"sequence": "ATACAAGC", "PBM E-score": -0.00455}
{"sequence": "CGACTGGC", "PBM E-score": 0.0877}
{"sequence": "ACTTTATA", "PBM E-score": 0.0648}
{"sequence": "ACATGTGA", "PBM E-score": -0.237}
{"sequence": "CAGGGTGG", "PBM E-score": -0.199}
{"sequence": "CTGTTGAC", "PBM E-score": -0.276}
{"sequence": "CAAAATAA", "PBM E-score": 0.00247}
{"sequence": "ACGTCCTC", "PBM E-score": -0.0717}
{"sequence": "AGATACGC", "PBM E-score": -0.0002}
{"sequence": "CACATATC", "PBM E-score": -0.149}
{"sequence": "ATCTGAGA", "PBM E-score": -0.201}
{"sequence": "GATGACCA", "PBM E-score": -0.0341}
{"sequence": "ATTCTACC", "PBM E-score": -0.00365}
{"sequence": "ATTGACTC", "PBM E-score": -0.00622}
{"sequence": "ATGTTCGA", "PBM E-score": -0.184}
{"sequence": "GTCAGGGA", "PBM E-score": -0.062}
{"sequence": "AGCATAAC", "PBM E-score": -0.121}
{"sequence": "GCTCGGTA", "PBM E-score": 0.136}
{"sequence": "TACGGATA", "PBM E-score": 0.123}
{"sequence": "GCGCACAC", "PBM E-score": 0.132}
{"sequence": "CGCAACGC", "PBM E-score": 0.134}
{"sequence": "ACAGTTTA", "PBM E-score": -0.109}
{"sequence": "CAAGTCAC", "PBM E-score": -0.0166}
{"sequence": "GAGCACCC", "PBM E-score": 0.0213}
{"sequence": "GGGGATAC", "PBM E-score": 0.0614}
{"sequence": "CAGATTTC", "PBM E-score": -0.0171}
{"sequence": "CCTAGAGC", "PBM E-score": 0.032}
{"sequence": "CACGCCTA", "PBM E-score": -0.312}
{"sequence": "CGGATTAC", "PBM E-score": 0.293}
{"sequence": "GGCTTTCA", "PBM E-score": 0.0919}
{"sequence": "GTTTCACA", "PBM E-score": -0.145}
{"sequence": "CGTTGGAG", "PBM E-score": -0.0709}
{"sequence": "ACGTGCCC", "PBM E-score": 0.00925}
{"sequence": "GCCGCCCA", "PBM E-score": 0.179}
{"sequence": "GACTGCCA", "PBM E-score": -0.0149}
{"sequence": "AGTCAAAG", "PBM E-score": -0.065}
{"sequence": "ACGCACAA", "PBM E-score": -0.021}
{"sequence": "AATGAAGG", "PBM E-score": -0.103}
{"sequence": "CCTCGATA", "PBM E-score": 0.0123}
{"sequence": "AGTCTGGA", "PBM E-score": -0.179}
{"sequence": "GCTTCCTA", "PBM E-score": -0.0609}
{"sequence": "AACAAACG", "PBM E-score": -0.0598}
{"sequence": "TCTCTACA", "PBM E-score": -0.211}
{"sequence": "GCGGTCCC", "PBM E-score": 0.129}
{"sequence": "TTAGGGAA", "PBM E-score": -0.146}
{"sequence": "CAGAGAAC", "PBM E-score": -0.231}
{"sequence": "AGGCACGA", "PBM E-score": -0.142}
{"sequence": "ATGAAAGC", "PBM E-score": -0.0408}
{"sequence": "AAGGTGTC", "PBM E-score": -0.0958}
{"sequence": "ACGGTAGT", "PBM E-score": -0.0374}
{"sequence": "AATAGGGG", "PBM E-score": 0.0914}
{"sequence": "CGCAGGAG", "PBM E-score": -0.00604}
{"sequence": "GCCCACAC", "PBM E-score": -0.0665}
{"sequence": "CTATGCTC", "PBM E-score": -0.237}
{"sequence": "ATTAGGGA", "PBM E-score": -0.0669}
{"sequence": "AAACGCTG", "PBM E-score": -0.189}
{"sequence": "CATACTTC", "PBM E-score": -0.0775}
{"sequence": "CTTCCTTC", "PBM E-score": -0.3}
{"sequence": "AGAAAGAT", "PBM E-score": -0.103}
{"sequence": "TGCGGCAA", "PBM E-score": 0.0515}
{"sequence": "GTAACCAC", "PBM E-score": -0.244}
{"sequence": "GCTGGCTA", "PBM E-score": -0.218}
{"sequence": "CCAGCGGG", "PBM E-score": 0.11}
{"sequence": "AAAACACG", "PBM E-score": 0.135}
{"sequence": "ATATGTAG", "PBM E-score": -0.163}
{"sequence": "ATGCAGAA", "PBM E-score": -0.16}
{"sequence": "GCAGTAAA", "PBM E-score": 0.147}
{"sequence": "AGCTTAAC", "PBM E-score": -0.233}
{"sequence": "AGTTTTCC", "PBM E-score": 0.287}
{"sequence": "ATATCATG", "PBM E-score": -0.198}
{"sequence": "CCTTCTAA", "PBM E-score": -0.258}
{"sequence": "CGAATACA", "PBM E-score": 0.13}
{"sequence": "ATGTGCAG", "PBM E-score": -0.133}
{"sequence": "CCTAGGGC", "PBM E-score": -0.174}
{"sequence": "ATTATTAC", "PBM E-score": -0.0102}
{"sequence": "CATGAATG", "PBM E-score": 0.00658}
{"sequence": "CGTGGGCC", "PBM E-score": 0.135}
{"sequence": "AGCAAAAT", "PBM E-score": 0.0814}
{"sequence": "CTGGACGA", "PBM E-score": -0.242}
{"sequence": "AAAACGGC", "PBM E-score": 0.178}
{"sequence": "CGGAACAA", "PBM E-score": 0.427}
{"sequence": "AGTCGGTC", "PBM E-score": 0.159}
{"sequence": "AATGTTAC", "PBM E-score": 0.0415}
{"sequence": "CGGTCTTA", "PBM E-score": 0.264}
{"sequence": "AGCTTCTC", "PBM E-score": -0.104}
{"sequence": "GGTGGCGA", "PBM E-score": -0.154}
{"sequence": "CACATACC", "PBM E-score": -0.0905}
{"sequence": "GAACTTAC", "PBM E-score": -0.11}
{"sequence": "GTCACGAA", "PBM E-score": -0.0546}
{"sequence": "CGGACAAA", "PBM E-score": 0.425}
{"sequence": "CGATGTGA", "PBM E-score": -0.163}
{"sequence": "ATACCTGG", "PBM E-score": -0.0503}
{"sequence": "CAGTGAGA", "PBM E-score": -0.163}
{"sequence": "TCCAAACA", "PBM E-score": -0.094}
{"sequence": "CGCTTTTC", "PBM E-score": 0.138}
{"sequence": "GACAAGAC", "PBM E-score": 0.0549}
{"sequence": "AACGTTGT", "PBM E-score": -0.0929}
{"sequence": "CGAAGACG", "PBM E-score": 0.134}
{"sequence": "CTCTGGCA", "PBM E-score": -0.178}
{"sequence": "CTTTTACC", "PBM E-score": 0.039}
{"sequence": "AATCAGCC", "PBM E-score": -0.121}
{"sequence": "TTCTTCAA", "PBM E-score": -0.124}
{"sequence": "TAAGATAA", "PBM E-score": -0.124}
{"sequence": "CTGTTGTC", "PBM E-score": 0.00406}
{"sequence": "ATCTTGAA", "PBM E-score": -0.0822}
{"sequence": "AGGGTACA", "PBM E-score": -0.2}
{"sequence": "ACAGGGTC", "PBM E-score": -0.0349}
{"sequence": "CGTCTTAA", "PBM E-score": -0.191}
{"sequence": "GTTTATGA", "PBM E-score": -0.0773}
{"sequence": "ATGAACCA", "PBM E-score": -0.0664}
{"sequence": "ATCAGCAT", "PBM E-score": -0.0349}
{"sequence": "ACGAGGAG", "PBM E-score": -0.242}
{"sequence": "AAGTGGGC", "PBM E-score": -0.124}
{"sequence": "AAAAGTTT", "PBM E-score": -0.0921}
{"sequence": "CGACCTCA", "PBM E-score": -0.181}
{"sequence": "CCCTACGA", "PBM E-score": -0.254}
{"sequence": "CATGTGTC", "PBM E-score": -0.184}
{"sequence": "CCCAGAGA", "PBM E-score": -0.233}
{"sequence": "AATATACC", "PBM E-score": 0.0793}
{"sequence": "ACCATACC", "PBM E-score": 0.0757}
{"sequence": "ACTCCTAC", "PBM E-score": 0.0382}
{"sequence": "AGACTCGG", "PBM E-score": 0.126}
{"sequence": "CTGCCCAC", "PBM E-score": -0.24}
{"sequence": "GCATAAGC", "PBM E-score": -0.11}
{"sequence": "CAACATTA", "PBM E-score": -0.151}
{"sequence": "ATACCAAG", "PBM E-score": 0.0375}
{"sequence": "ACGTCGAC", "PBM E-score": -0.122}
{"sequence": "ACCACTCT", "PBM E-score": -0.243}
{"sequence": "TGCGAGAA", "PBM E-score": -0.0828}
{"sequence": "CCTACTAA", "PBM E-score": 0.00789}
{"sequence": "ACTTATCG", "PBM E-score": 0.137}
{"sequence": "CCGGTTCC", "PBM E-score": 0.343}
{"sequence": "CGAGCCCG", "PBM E-score": 0.134}
{"sequence": "CCGTGGAA", "PBM E-score": 0.255}
{"sequence": "CCTGGCAG", "PBM E-score": -0.32}
{"sequence": "CCCTAACC", "PBM E-score": -0.0438}
{"sequence": "TATGCTGA", "PBM E-score": -0.113}
{"sequence": "ACTGCAAA", "PBM E-score": -0.0753}
{"sequence": "CACTTGTA", "PBM E-score": -0.208}
{"sequence": "TAACTGAA", "PBM E-score": -0.178}
{"sequence": "TTAGAAAA", "PBM E-score": 0.00204}
{"sequence": "ACTTTTCG", "PBM E-score": 0.0993}
{"sequence": "CTGAGCTA", "PBM E-score": -0.145}
{"sequence": "GCAGTGCA", "PBM E-score": -0.178}
{"sequence": "ACCACGGA", "PBM E-score": 0.341}
{"sequence": "CAGTTCAC", "PBM E-score": -0.0673}
{"sequence": "AGAGGCAC", "PBM E-score": -0.23}
{"sequence": "CACACAAA", "PBM E-score": -0.188}
{"sequence": "GTGCGCGA", "PBM E-score": 0.145}
{"sequence": "ATATTGTG", "PBM E-score": -0.181}
{"sequence": "ATTAACAG", "PBM E-score": -0.168}
{"sequence": "GTCAGCTA", "PBM E-score": -0.379}
{"sequence": "GTATGGCA", "PBM E-score": -0.204}
{"sequence": "CAGTATCA", "PBM E-score": -0.185}
{"sequence": "ATGCCACG", "PBM E-score": -0.0392}
{"sequence": "ACGACAAG", "PBM E-score": -0.225}
{"sequence": "GACAGTCC", "PBM E-score": 0.0326}
